Test results published in the supplement of paper PMC3334620.
In all, about 33,000 sequences were measured (“E-score (-0.5 to 0.5)”: median about -0.016, highest 2% from about 0.31 on). Some of the results follow.

Target: Cst6 (UniProt P40535)
Assay: PBM E-score (8-mer binding enrichment) (E-score (-0.5 to 0.5)); higher = stronger / more preferred TF binding; most listed sequences are background and not binding sites
Conditions: protein concentration: 200 nM; construct: GST-DNA-binding domain
Procedure, shortened: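 Each ungapped eight-base word and its reverse complement, pooled, received an E-score from the Universal PBM Analysis Suite. Underlying scans, normalised with masliner, recorded fluorescent anti-GST bound to GST-tagged yeast transcription factors. These were applied at about 100-200 nM to universal all-10-mer Agilent arrays double-stranded by primer extension.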

Point of comparison: GAGCGGGC, “PBM E-score” value -0.172. Against it:
- GTGGTTCA — higher, 0.0445
- TAACCGGA — higher, -0.0619
- CACTACAC — higher, -0.0303
- CGTTTGGA — higher, -0.0813
- CTTTGGCC — higher, -0.151
- CGGGCATA — higher, -0.156
- AAGCTGCG — lower, -0.226
- CTCAAATC — higher, -0.023
- AACCAAAG — higher, 0.0508
- CCACGGCC — higher, -0.0591
- CCAGGGGG — lower, -0.363
- CCGGGGTA — lower, -0.26
- AATGTGGG — higher, -0.0891
- ACTGGCCC — lower, -0.224
- GCGAACAA — higher, 0.143
- GCGTCTCA — higher, 0.00483
- ACCGCCCA — lower, -0.216
- AAGAGACA — higher, 0.0585
- AACAGGGC — higher, -0.103
- ACCTACTA — higher, 0.138
- TTACCGAA — higher, 0.156
- TGATATCA — higher, 0.426
- ATTATGCG — higher, 0.217
- ATAGGATC — higher, -0.103
- ACTGTGAG — higher, 0.0126
- CTATCACA — higher, 0.0487
- GCTTACCA — higher, 0.124
- CAAACCTA — higher, -0.0463
- AGCATTCC — higher, -0.0762
- CTTTTTTA — higher, 0.161
- CAACATAG — higher, -0.00641
- AGCTATAA — higher, 0.0927
- CGGGGAAG — higher, -0.125
- ATGAGCAC — higher, -0.0166
- ACGTGAAG — higher, 0.0251
- CCACGTAC — higher, -0.0887
- CAGCGAGA — lower, -0.193
- AAAAATCC — higher, 0.0838
- GATCCAGC — higher, -0.143
- ATTCTGGC — higher, 0.025
- AAAGAAAC — higher, 0.15
- GGCCTAAC — higher, -0.142
- CAACTGCC — higher, 0.0713
- GCTAGGGA — lower, -0.217
- ATCCACCC — lower, -0.236
- TCAGTGAA — higher, -0.00204
- ACCTGGCG — lower, -0.241
- CCATGATC — higher, -0.113
- ACTGATTG — higher, -0.00763
- AACCTATT — higher, 0.0548
- AGGGAACG — lower, -0.184
- CCCTAAGA — lower, -0.214
- CCAAGACC — lower, -0.183
- ATCGTTCA — higher, 0.0569
- AGATATAA — higher, 0.153
- CTTTTTCA — higher, 0.0172
- CTAAAGAC — higher, -0.0173
- GAATTCAA — higher, 0.16
- GGCATCCA — lower, -0.213
- CCGAGGTA — lower, -0.27
- GGTTAGCA — higher, -0.111
- AAAAATGC — higher, 0.101
- GAAGCTTC — lower, -0.297
- CTATTCGA — higher, 0.0201
- CTTGCCGC — higher, -0.0174
- CAAAGTCA — higher, 0.072
- AGATGCAC — higher, -0.148
- AAGTATTG — higher, 0.134
- CCCAGTTC — higher, -0.0847
- GGAGCCGA — higher, -0.16
- TATTTGCA — higher, 0.183
- TGTCCACA — higher, -0.0456
- ACACTGAT — higher, 0.0166
- GTGTTTGA — higher, 0.235
- GCTCCGAA — higher, -0.0443
- AGTATTCC — higher, 0.0547
- CAGCACTA — lower, -0.18
- AATCTTCA — higher, 0.243
- CGACCCAC — lower, -0.31
- AGGAAGCC — higher, -0.171
- AAGCATTG — lower, -0.177
- GAACGGAC — higher, -0.125
- AGGAGATC — higher, -0.125
- AGCCTTAA — higher, -0.0543
- AAGGGTAC — higher, -0.0378
- AACAAGTG — higher, -0.0672
- GTGGAGCA — lower, -0.253
- CATCTGAC — higher, -0.0499
- CTACTTAC — higher, 0.127
- AATTCTGT — higher, 0.0776
- GCCGAACC — higher, -0.12
- AACAATTA — higher, 0.302
- GGTGGGAC — lower, -0.298
- AACTATCC — lower, -0.194
- AGCTATGC — higher, -0.0507
- CAATGGCA — higher, -0.0216
- CCAGTACC — higher, -0.138
- GAGTAGTA — higher, 0.0811
- CCTACCCG — higher, -0.167
- CACATAGC — higher, -0.0333
- AGCCGGGG — lower, -0.292
- CGATCGAA — higher, -0.0187
- ATGGCGCA — higher, 0.0754
- AATCCGCG — higher, -0.00075
- ACTATTTA — higher, 0.0648
- GGTGTCCA — higher, -0.159
- ACTGAAAG — higher, 0.102
- CCCTTGGA — higher, -0.037
- CCAGCGTA — higher, -0.161
- GCGTTTCA — higher, -0.00465
- CGTTACAC — higher, 0.0658
- ATTACACC — higher, 0.089
- CTACGCAC — higher, -0.0813
- AGGATGAA — higher, -0.0458
- ATGGGCAC — higher, 0.105
- GCGCTCAC — higher, -0.0942
- ACAATGGG — higher, 0.0198
- CGTCTGTA — higher, 0.0257
- AGTATAAA — higher, 0.301
- CCCGCGTA — higher, -0.0745
- TACCGGAA — higher, -0.102
- CTCGGTAC — lower, -0.292
- CCCGACAA — higher, 0.0133
- CTAGGACC — lower, -0.36
- AGTAGAGA — higher, 0.0665
- ACAGATCG — higher, -0.00844
- CTGCACGC — lower, -0.263
- AAGCCTAG — higher, -0.0756
- TGAGACCA — higher, 0.0312
- ATCTGTTG — higher, -0.0928
- AGCTGCGG — higher, -0.0814
- GCGCTATA — higher, 0.0108
- CACGTTAA — higher, 0.0603
- GAAACCCA — higher, 0.0732
- CTTAACAA — higher, 0.151
- AGTCCCGG — lower, -0.319
- AAAGCTCA — higher, 0.0148
- AGACAATC — higher, 0.11
- AGAATCAC — higher, 0.15
- CCACGTCG — lower, -0.196
- GCTTACTA — higher, 0.0286
- ACAACGGG — higher, 0.00417
- CGACTAGA — lower, -0.184
- CCAGGCTA — lower, -0.407
- ACTCACCG — higher, 0.0446
- CGGAATCC — lower, -0.227
- CTCGTGCA — higher, -0.103
- CGCGATAC — higher, -0.0135
- AATCCATA — higher, 0.0862
- CGTAGGAC — higher, -0.146
- GACACAAA — higher, 0.249
- CCTTTCTA — higher, 0.116
- ACAAGAAA — higher, 0.237
- ACCAGGAC — higher, -0.0872
- AGGCGAGA — higher, -0.16
- AGAATGAG — higher, -0.0205
- GCGACTCA — lower, -0.219
- GGAACAAA — higher, 0.18
- GAAAATTA — higher, 0.195
- CAGGCTCG — lower, -0.188
- TCACGTGA — higher, 0.1
- GTCCCAAA — higher, -0.0736
- CTAACTAC — higher, -0.0492
- CATTTGAC — higher, 0.12
- CCGACGGA — higher, -0.164
- GTAGGACA — higher, -0.0243
- CTTGAGCA — higher, -0.0965
- ACGGCAAT — higher, 0.329
- ATCCGGCC — lower, -0.218
- CTTGACAC — higher, -0.012
- GCCCTATA — higher, 0.0742
